Measured values from a compilation of properties of binary mixtures (doi:10.1016/j.molliq.2022.120022).
Some of these densities may be calculated back from excess volumes.

Test: xn = mol fraction of the nth substance listed
Conditions: 100 kPa

C[N+](C)(C)CCO.NCC(=O)[O-] + O
mass density [kg/m3]
Conditions | x1 = 0.1 | x1 = 0.2004 | x1 = 0.3 | x1 = 0.3996 | x1 = 0.5004 | x1 = 0.6004 | x1 = 0.6966 | x1 = 0.8014 | x1 = 0.8996 | x1 = 1
298.15 K | 1081.8 | 1113.7 | 1128.1 | 1135.5 | 1139.8 | 1142.3 | 1143.8 | 1144.9 | 1145.7 | –
303.15 K | 1079.4 | 1111 | 1125.4 | 1132.7 | 1136.9 | 1139.5 | – | 1142.2 | 1142.9 | 1143.4
308.15 K | – | 1108.3 | 1122.6 | – | 1134.1 | 1136.7 | 1138.2 | 1139.3 | 1140.1 | 1140.6
313.15 K | 1074.4 | 1105.6 | 1119.8 | – | – | 1133.8 | 1135.3 | 1136.5 | 1137.2 | 1137.8
318.15 K | – | 1102.8 | – | – | – | 1131 | 1132.5 | 1133.7 | 1134.4 | –
323.15 K | 1069.3 | 1100.1 | 1114.2 | 1121.5 | 1125.6 | 1128.2 | 1129.7 | 1130.9 | 1131.6 | 1132.2

O + C[N+](C)(C)CCO.NCC(=O)[O-]
Conditions | mass density [kg/m3]
323.15 K, x2 = 0 | 987.8
